Assay results: patent US10392630B2, “Plants having increased tolerance to herbicides” (BASF AGRO B.V., priority 2013, dated 2019)
“And” between values parts separate entries of the source, which are not always exact repeats. Identical values can stand only once.

How the values were obtained:
[1] = test system: transgenic Arabidopsis thaliana plants; assay: Growth inhibition of transgenic Arabidopsis in 48-well plates, tolerance factor (Table 5, FIG. 2); conditions: growth inhibition seven to ten days after seeding
[2] = test system: transgenic T0 corn events; assay: Herbicide injury of transgenic T0 corn events, greenhouse spray (Table 6a); parameters: key: 0 is no injury relative to an unsprayed wild type check; 9 is completely dead; conditions: 7 days after treatment
Procedure: Immature embryos were transformed according to the procedure outlined in Peng et al. (WO2006/136596). Plants were tested for the presence of the T-DNA by Taqman analysis with the target being the nos terminator which is present in all constructs. Healthy looking plants were sent to the greenhouse for hardening and subsequent spray testing. The plants were individually transplanted into MetroMix 360 soil in 4′ pots. Once in the greenhouse (day/night cycle of 27° C./21° C. with 14 hour day length supported by 600 W high pressure sodium lights), they were allowed to grow for 14 days. […] Herbicide injury evaluations were taken at 7, 14 and 21 days after treatment. Herbicide injury evaluations were taken 2, 7, 14 and 21 days post-spray to look for injury to new growth points and overall plant health. The top survivors were transplanted into gallon pots filled with MetroMix 360 for seed production. It will be acknowledged by the person skilled in the art that by replacing the natural transit peptide of an Alopecurus PPO2 comprising the sequence of SEQ ID NO: 2, against a heterologous transit peptide from Zea mays (SEQ ID NO: 8) or Sorghum bicolor (SEQ ID NO: 9), the native N-terminal end of SEQ ID NO: 2 is shortened by 7 amino acids. Therefore, preferred mutational sites at or corresponding to, for example, positions R137 or F438 on SEQ ID NO: 2, as described above in the description in greater detail, are identical to positions R130 or F431 in said fusion proteins. See e.g. construct named tp-ZeamaPPO2::AlomyPPO2_R130A_F431V in Table 6.

[3] = test system: transgenic soybean cv Jake cuttings; assay: Herbicide injury of transgenic soybean cuttings from T0 plants (Table 7, FIG. 4); conditions: V2 spray, 1 week after treatment
Procedure: Soybean cv Jake was transformed as previously described by Siminszky et al., Phytochem Rev. 5:445-458 (2006). After regeneration, transformants were transplanted to soil in small pots, placed in growth chambers (16 hr day/8 hr night; 25° C. day/23° C. night; 65% relative humidity; 130-150 microE m-2 s-1) and subsequently tested for the presence of the T-DNA via Taqman analysis. After a few weeks, healthy, transgenic positive, single copy events were transplanted to larger pots and allowed to grow in the growth chamber. An optimal shoot for cutting was about 3-4 inches tall, with at least two nodes present. Each cutting was taken from the original transformant (mother plant) and dipped into rooting hormone powder (indole-3-butyric acid, IBA). The cutting was then placed in oasis wedges inside a bio-dome. The mother plant was taken to maturity in the greenhouse and harvested for seed. Wild type cuttings were also taken simultaneously to serve as negative controls. The cuttings were kept in the bio-dome for 5-7 days and then transplanted to 3 inch pots and then acclimated in the growth chamber for two more days. […] Herbicide injury evaluations were taken at 2, 7, 14 and 21 days after treatment.
The following gives a definition of the injury scores measured above: […]

[4] = target: Alopecurus mutant PPO (ALOMY), SEQ ID NO 2 with amino acid substitution; assay: PPO enzyme assay, dose-response (fluorescence), mutated Alopecurus PPO2; conditions: Table 3b
Procedure: Proto was purchased from Sigma-Aldrich (Milwaukee, Wis.). Protogen was prepared according to Jacobs and Jacobs (N. J. Jacobs, J. M. Jacobs, Assay for enzymatic protoporphyrinogen oxidation, a late step in heme synthesis, Enzyme 28 (1982) 206-219). Assays were conducted in 100 mM sodium phosphate pH 7.4 with 0.1 mM EDTA, 0.1% Tween 20, 5 μM FAD, and 500 mM imidazole. […] Dose response was measured between the inhibitor concentration range of 1.00E-05 M to 1.00E-12 M. The excitation and emission bandwidths were set at 1.5 and 30 nm, respectively. All assays were made in duplicates or triplicates and measured using a POLARstar Optima/Galaxy (BMG) with excitation at 405 nm and emission monitored at 630 nm. […] Values were measured for Alopecurus wildtype and mutant PPO (ALOMY) in comparison with Amaranthus wildtype and mutant PPO (AMARE): Results are shown in the following Tables 3: […]

[5] = transgenic Arabidopsis Am_PPO2_F438L
[6] = transgenic Arabidopsis Am_PPO2_F438M
[7] = transgenic Arabidopsis Am_PPO2_F438V
[8] = transgenic Arabidopsis Am_PPO2_R137L
[9] = transgenic Arabidopsis Am_PPO2_R137M
[10] = transgenic Arabidopsis Am_PPO2_R137V

Compound: C#CCN1C(=O)C(F)(F)Oc2cc(F)c(-n3c(=O)n(C)c(=S)n(C)c3=O)cc21 [BAS 850H]
- TF (Tolerance Factor), relative tolerance rate (non-transgenic = 1.0) [1, 5]: >50
- TF (Tolerance Factor), relative tolerance rate (non-transgenic = 1.0) [1, 6]: >50
- TF (Tolerance Factor), relative tolerance rate (non-transgenic = 1.0) [1, 7]: >50
- TF (Tolerance Factor), relative tolerance rate (non-transgenic = 1.0) [1, 8]: >50
- TF (Tolerance Factor), relative tolerance rate (non-transgenic = 1.0) [1, 9]: >50
- TF (Tolerance Factor), relative tolerance rate (non-transgenic = 1.0) [1, 10]: >50
- Herbicide injury, 0 to 9 rating scale ([2]; T0 corn events AlomyPPO2_F438L, 100 g ai/ha + 1% (v/v) MSO at V2 stage): 4
- Herbicide injury, 0 to 9 rating scale ([2]; T0 corn events AlomyPPO2_F438V, 100 g ai/ha + 1% (v/v) MSO at V2 stage): 5 and 4
- Herbicide injury, 0 to 9 rating scale ([2]; T0 corn events AlomyPPO2_R137L, 75 g ai/ha + 1% (v/v) MSO at V2 stage): 5
- Herbicide injury, 0 to 9 rating scale ([2]; T0 corn events AlomyPPO2_R137M, 50 g ai/ha + 1% (v/v) MSO at V2 stage): 5 and 6 and 4
- Herbicide injury, 0 to 9 rating scale ([2]; T0 corn events AlomyPPO2_R137M, 100 g ai/ha + 1% (v/v) MSO at V2 stage): 5 and 6
- Herbicide injury ([3]; AlomyPPO2_F438V T0 cuttings, BAS 850H 50 g ai/ha): 1
- Herbicide injury ([3]; AlomyPPO2_F438V T0 cuttings, BAS 850H 75 g ai/ha): 5
- Herbicide injury ([3]; AlomyPPO2_R137V T0 cuttings, BAS 850H 25 g ai/ha): 7 and 8
- Herbicide injury ([3]; AlomyPPO2_R137V T0 cuttings, BAS 850H 50 g ai/ha): 9 and 8

Compound: OXADIARGYL
- IC50 ([4]; SEQ ID NO 2, mutation L415M, F438M): 0.0102 µM
- IC50 ([4]; SEQ ID NO 2, mutation R137C): 0.000711 µM
- IC50 ([4]; SEQ ID NO 2, mutation R137N): 0.00348 µM
- IC50 ([4]; SEQ ID NO 2, mutation R137V, F438M): 0.0178 µM
- IC50 ([4]; SEQ ID NO 2, mutation R137Y, F438M): 0.0146 µM

Compound: CC(C)N(C)S(=O)(=O)NC(=O)c1cc(-n2c(=O)cc(C(F)(F)F)n(C)c2=O)c(F)cc1Cl [saflufenacil]
- TF (Tolerance Factor), relative tolerance rate (non-transgenic = 1.0) [1, 5]: 1700
- TF (Tolerance Factor), relative tolerance rate (non-transgenic = 1.0) [1, 6]: 2500
- TF (Tolerance Factor), relative tolerance rate (non-transgenic = 1.0) [1, 7]: 1560
- TF (Tolerance Factor), relative tolerance rate (non-transgenic = 1.0) [1, 8]: 3300
- TF (Tolerance Factor), relative tolerance rate (non-transgenic = 1.0) [1, 9]: 3300
- TF (Tolerance Factor), relative tolerance rate (non-transgenic = 1.0) [1, 10]: 1500
- Herbicide injury, 0 to 9 rating scale ([2]; T0 corn events AlomyPPO2_R137M, 75 g ai/ha + 1% (v/v) MSO at V2 stage): 0
- Herbicide injury ([3]; AlomyPPO2_F438M T0 cuttings, BAS 800H 25 g ai/ha): 9
- Herbicide injury ([3]; AlomyPPO2_F438V T0 cuttings, BAS 800H 50 g ai/ha): 1
- Herbicide injury ([3]; AlomyPPO2_F438V T0 cuttings, BAS 800H 100 g ai/ha): 6
- Herbicide injury ([3]; AlomyPPO2_F438V T0 cuttings, BAS 800H 200 g ai/ha): 0
- Herbicide injury ([3]; AlomyPPO2_R137L T0 cuttings, BAS 800H 100 g ai/ha): 4 and 3 and 5
